Measured values as given in PubChem BioAssay AID1346428 (National Center for Advancing Translational Sciences (NCATS), 2018).
Where “and” joins values, the source holds several entries; their conditions need not be identical. Equal values may be shown once. In all, about 48,000 compounds went through this assay and about 1,200 (2.5%) were called active. Another 2% or so got no clear call; they are omitted.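 The calls were made as follows: active = activation of at least 60% and not above a set upper limit (about 1 call in 100 departs from these limits); inconclusive = activation of 40% to 60%, or above that upper limit; inactive = activation under 40%.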 The list shows a part of the results. Where a SMILES comes first, the peptide text is derived from it. [ ]: non-standard residue; d: D form. pGlu = O=C1CC[C@@H](C(=O)O)N1

target: Probable G-protein coupled receptor 32 (Homo sapiens) (UniProt O75388); test: qHTS for Agonists of Human Resolvin D1 Receptor DRV1; conditions: CHO-K1 GPR32 beta-arrestin PathHunter luminescence, 90 min; at 76.9 µM; stronger effect = higher value; zero percent set by DMSO-only wells
UniProt O75388, sequence (O75388 whole entry, looked up, the tested form may be a part): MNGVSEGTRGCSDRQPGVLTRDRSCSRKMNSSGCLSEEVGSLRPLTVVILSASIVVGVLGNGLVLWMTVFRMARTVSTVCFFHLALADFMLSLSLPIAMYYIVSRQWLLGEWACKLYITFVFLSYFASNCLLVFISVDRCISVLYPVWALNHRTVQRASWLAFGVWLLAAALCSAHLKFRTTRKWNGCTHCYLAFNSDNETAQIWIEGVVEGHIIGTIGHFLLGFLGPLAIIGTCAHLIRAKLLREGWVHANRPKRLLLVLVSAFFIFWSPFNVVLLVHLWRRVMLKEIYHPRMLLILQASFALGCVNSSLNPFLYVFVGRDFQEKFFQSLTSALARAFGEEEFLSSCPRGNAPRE
Outline: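 PathHunter enzyme-fragment complementation, CHO-K1 GPR32 stable line; 2,500 cells/well, overnight attach; cpd 90 min 37 °C 5% CO2; detection reagent 1 h RT; chemiluminescence. DMSO = EC0.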

Compound	activation
Cc1ccc(CNC(=O)C(=O)NCC(c2ccc3c(c2)OCO3)N2CCOCC2)cc1 (stereo unspecified)	inactive: -17.7%
COc1cc(NC(=O)CSc2nc3nc(C)c(Cc4ccccc4Cl)c(C)n3n2)cc(OC)c1	inactive: -3.93%
COc1cc(Cl)c(C)cc1NC(=O)c1cnc(N2CCCCC2)c2ccccc12	inactive: -15.2%
CCCOc1ccc(CNC(=O)C(NS(=O)(=O)c2cccs2)C(C)C)cc1 (stereo unspecified)	inactive: -0.972%
COC(=O)C(CCSC)Nc1ncnc2onc(-c3ccc(F)cc3)c12 (stereo unspecified)	inactive: -9.2%
CC(C)Cn1c(-c2cccc(Br)c2)nc2ccccc21	inactive: 11.1%
COc1cc2nc(SCc3ccc(C)cc3)n3nc(CCn4nc(C)cc4C)nc3c2cc1OC	inactive: -1.31%
CCOc1ccccc1NC(=O)C(=O)Nc1ccc2nc3n(c(=O)c2c1)CCCCC3	inactive: -15.5%
Cc1cc(C)cc(NC(=O)C(Cc2ccccc2)NS(=O)(=O)c2ccc3c(c2)CCC(=O)N3)c1 (stereo unspecified)	inactive: 8.67%
OCc1cnc(SCc2ccccc2F)n1Cc1ccc(F)cc1	active: 93.9%
O=C(c1ccccc1)N1c2nc(-c3ccco3)nn2C2(CCCCC2)[C@@H]2CCCC[C@@H]21	inactive: -17.6%
Cc1cc(C)cc(NC(=O)Cc2noc3ccccc23)c1	inactive: -7.35%
Cc1cc(C)c(NC(=O)C2CCCN(S(=O)(=O)c3c(C)noc3C)C2)c(C)c1 (stereo unspecified)	inactive: 16.2%
Cc1ccccc1OCc1ccc(-c2nc(C#N)c(N3CCN(c4cccc(Cl)c4)CC3)o2)o1	inactive: -10.3%
CCN1CCN(c2oc(-c3ccc(COc4ccccc4C)o3)nc2C#N)CC1	inactive: -17.3%
O=C(O)c1ccccc1C(=O)Nc1ccc(Br)c2cccnc12	inactive: -12.4%
COc1ccc(Cn2ccc3nc(C)c(C(=O)Nc4cccc(SC)c4)cc3c2=O)cc1	inactive: -23%
Oc1c(C(Nc2ccccn2)c2ccccc2F)ccc2cccnc12 (stereo unspecified)	inactive: 1.39%
COc1cccc(CNC(=O)Cn2ncn3nc(-c4cccs4)cc3c2=O)c1	inactive: 0.091%
CCCNC(=O)c1ccc2c(c1)nc1n2CCCCC1	inactive: -5.47%
Cc1noc(C)c1S(=O)(=O)N(CC(=O)Nc1ccc(F)cc1F)c1ccc(C(C)C)cc1	inactive: -5.62%

Compound	activation
Cc1ccc(NC(=O)C2CCN(S(=O)(=O)c3cccc4nsnc34)CC2)cc1F	active: 93.3%
COc1ccc(NC(=O)C(=O)NCCc2csc3nc(-c4ccccc4F)nn23)cc1OC	inactive: -0.389%
CC(=O)c1ccc(NS(=O)(=O)c2ccc3c(c2)NC(=O)CCS3)cc1	inactive: -9.93%
CCn1cc2nc(SCc3ccccc3Cl)n(Cc3ccc(OC)cc3)c(=O)c2n1	inactive: -13%
COc1cccc(CNC(=O)c2ccc(-c3nc(CSc4ccccc4)c(C)o3)cc2)c1	inactive: 3.86%
COc1ccc(C(Nc2ccccn2)c2ccc3ccc(C)nc3c2O)cc1C (stereo unspecified)	active: 89.8%
CCCN(CCC)CCCNC(=O)c1cc2c(=O)n(C)c3ccccc3c2s1	inactive: 16.5%
CC(=O)Nc1ccccc1-c1nc2ccccc2n(C(C)C(=O)Nc2ccccc2C(F)(F)F)c1=O (stereo unspecified)	inactive: -1.52%
COc1ccc(-c2c(C)c3ccc(O)c(CN4CCC(C)CC4)c3oc2=O)cc1OC	inactive: -32.5%
Cc1cccc(N2CCN(C3=C(c4ccccc4)C(=O)c4ccccc43)CC2)c1C	inactive: 2.15%
COc1cc(OC)c(OC)cc1/C=C/c1nc2cc3ccccc3cc2c(=O)n1-c1ccccc1Br	inactive: -27.7%
Cc1ccc(CNC(=O)c2cc(=O)c3cc(C)ccc3o2)cc1	inactive: 28.9%
CN1CCN(c2ncnc3c2cnn3-c2cccc(Cl)c2)CC1	inactive: 44.4%
COc1cc2c(c(OC)c1)C(c1cccc(F)c1F)CC(=O)N2 (stereo unspecified)	inactive: 10.1%
Cc1ccccc1-c1noc(-c2ccccc2OCC(=O)Nc2cccc([N+](=O)[O-])c2)n1	inactive: -9.13%
Cc1cccc(C)c1NC(=O)Cn1nnc(S(=O)(=O)c2ccccc2)c1N	inactive: 12.1%
O=C1CN(C(=O)c2ccc(S(=O)(=O)N3CCCC3)cc2)C(c2ccccc2)c2cc(F)ccc2N1 (stereo unspecified)	inactive: -13.3%
N#Cc1c(-c2ccccc2)cc(-c2ccccc2)nc1SCC(O)CS(=O)(=O)Cc1ccc(Cl)cc1 (stereo unspecified)	inactive: -2.18%
Cc1cc(NC(=O)Cc2ccccc2)cc(-c2nc3ccccc3o2)c1O	inactive: 29.4%
CCn1cc(/C=C(\NC(=O)c2cc(OC)c(OC)c(OC)c2)C(=O)NCCCn2ccnc2)c2ccccc21	inactive: 21.5%
CN(C)c1ccc(Nc2ncnc3c2c(-c2ccccc2)cn3-c2cccc(Cl)c2)cc1	inactive: -23%

Compound	activation
CCOC(=O)c1cc2c(=O)n3ccccc3nc2n(C(C)C)c1=NC(=O)C(C)(C)Oc1ccc(Cl)cc1	inactive: -5.12%
Cc1c(C(=O)NCCN(C)C)oc2c1-c1nn(Cc3cccc(Cl)c3)cc1CC2	inactive: -12.4%
COC(=O)c1ccccc1NS(=O)(=O)c1cc2c(cc1C)N(C)CCO2	inactive: -6.54%
Cc1cccc(S(=O)(=O)c2cn(Cc3ccccc3)c3cc(N4CCCCC4)c(F)cc3c2=O)c1	inactive: -12.2%
CCN(Cc1nc(-c2ccc(OC)c(OC)c2)no1)S(=O)(=O)c1ccc(OC)cc1	inactive: 8.93%
COc1ccc(-c2nc3sc(CCNC(=O)c4ccc(Br)o4)c(C)n3n2)cc1	inactive: 29.3%
COc1ccc(CCC(=O)NC2CC(=O)N(c3ccc(F)cc3)C2)cc1 (stereo unspecified)	inactive: -29.4%
CCN(CC)C(=O)c1c(-c2ccccc2)c(-c2ccccc2)nn(CC)c1=O	inactive: -17.9%
COc1ccccc1N1CCN(C(=O)CN2C(=O)COc3ccc(S(=O)(=O)N4CCOCC4)cc32)CC1	inactive: -14.8%
O=C(CSc1nc(=O)n(Cc2ccccn2)c2c1CCC2)Nc1ccccc1	inactive: -15.5%
CN1[C@@H]2CC(OC(=O)[C@H](CO)c3ccccc3)C[C@H]1[C@@H]1O[C@@H]12 (stereo partly specified)	inactive: -2.89%
COc1cc(CNC(=O)c2cnc(SC)nc2-c2ccccc2)cc(OC)c1OC	inactive: -6.52%
Cc1ccc(S(=O)(=O)C(CNS(=O)(=O)c2cc(F)ccc2F)c2cccs2)cc1 (stereo unspecified)	inactive: -24.9%
CC(C)(C)OC(=O)N1CCC(c2c(C(=O)NC3CCCCC3)cnn2-c2ccc(F)cc2F)CC1	inactive: -12.1%
CSc1ccccc1NC(=O)CCS(=O)(=O)c1nc(-c2ccc3c(c2)OCO3)cc(C(F)(F)F)n1	inactive: -24%
COc1ccccc1NC(=O)CC(C)n1nc(C)cc1C (stereo unspecified)	inactive: -7.27%
CCOc1ccc(C2c3c(-c4cc(C)ccc4O)n[nH]c3C(=O)N2Cc2cccnc2)cc1OCC (stereo unspecified)	inactive: -23.6%
CCNC(=O)[C@@H]1CCCN1C(=O)[C@H](CCCN=C(N)N)NC(=O)[C@H](CC(C)C)NC(=O)CNC(=O)[C@H](Cc1ccc(O)cc1)NC(=O)[C@H](CO)NC(=O)[C@H](Cc1c[nH]c2ccccc12)NC(=O)[C@H](Cc1cnc[nH]1)NC(=O)[C@@H]1CCC(=O)N1 ([pGlu]HWSYGLRP-NHEt)	inactive: 2.03%
Cc1ccc2c(=O)c(C(=O)c3cccc(Cl)c3)cn(CC(=O)NC3CCCCC3)c2n1	inactive: -3.58%
COc1ccc(OC)c(CCNC(=O)CCCn2c(=O)c3cccn3c3ccc(F)cc32)c1	inactive: -8.91%
Cc1cc(F)ccc1NC(=O)CCS(=O)(=O)c1cc2c(cc1C)NC(=O)CO2	inactive: -2.39%

Compound	activation
COc1ccccc1Nc1ncc2c(n1)CCN(Cc1ccc(C)s1)C2	inactive: 30.6%
CCOC(=O)N1CCC(NC(=O)c2c(C)nn(-c3cccc(C)c3)c2-n2cccc2)CC1	inactive: 9.72%
COc1ccc(-n2nc3c(N4CCC(C(=O)NCc5ccccc5C)CC4)nnc(C)c3c2C)cc1	inactive: -17.4%
CCOC(=O)c1ccc(NC(=O)CSc2nc3c(c(=O)[nH]2)CN(Cc2ccccc2)CC3)cc1	inactive: -22.4%
CC(C)(C)C(=O)NCCc1nc2ccccc2n1CCCCOc1ccccc1	inactive: -7.63%
Cc1ccc(N(CC(=O)N2CCN(c3ccc(F)cc3)CC2)S(=O)(=O)c2c(C)noc2C)cc1	inactive: -4.27%
O=S(=O)(NCc1ccc(F)cc1)c1ccc(N2CCCCS2(=O)=O)cc1	inactive: 18.5%
Cc1ccc(CSc2cn(CC(=O)N3CCCCCC3)c3ccccc23)cc1	inactive: -31.8%
COc1cccc(CNC(=O)Cn2ncc3c(=O)oc4ccccc4c32)c1	inactive: -4.44%
CCOc1ccccc1CNCCCSc1nnnn1C	inactive: 5.11%
CCCN(Cc1cc2cccc(C)c2[nH]c1=O)C(=O)c1cccc(Cl)c1	inactive: -9.06%
CCOC(=O)c1c(NC(=O)c2cc(=O)c3cc(C)ccc3o2)sc2c1CCCC2	inactive: -7.46%
COc1ccc(Cl)cc1NC(=O)CSC1=Nc2ccccc2C2=NC(CCC(=O)NCc3ccco3)C(=O)N12 (stereo unspecified)	inactive: -12.5%
Cc1ccc(Cn2c(CCNC(=O)c3cccc(C)c3)nc3ccccc32)cc1	inactive: -13.6%
Cc1ccc(S(=O)(=O)N2CCN(Cc3ccccc3Cl)CC2)cc1	inactive: -16.8%
NC(=O)c1cnccn1	inactive: 8.95% and inactive: -7.03%
Cc1cccc(NC(=O)CN2C(=O)C3(SCC(=O)N3c3ccccc3)c3ccccc32)c1 (stereo unspecified)	inactive: -2.5%
O=C(NCCc1ccccc1)c1ccc2c(c1)N(Cc1ccc(F)cc1)C(=O)CS2	inactive: -7.43%
